The whole screen tested about 320,000 compounds, of which about 2,100 (0.66%) were called active. Another 53% or so got no clear call; they are omitted. Calls follow the shape of the dose curve; as a rule, active = well fitted inhibition curve with a large enough effect in the signal ratio, with a control signal flat (not every such curve was filed as active); inconclusive = small, poorly fitted or top-dose-only effect, or effect the other way, or a change in a side signal; inactive = flat fitted curve, though single readings scatter; the % refers to the signal ratio. The source holds several records for some structures; these can differ, active in one and inactive in another. A number of entries come with more than one value. They are shown here; other results are not. An entry can have further records. The records of an entry are repeated measurements across runs, samples, wells, individuals or studies. What stands in brackets tells the records apart. The letters are not those of the source and start again with each entry.
Potency is read from the fitted curve at half-maximal effect.

This assay can be described thus: qHTS Assay for Lipid Storage Modulators in Drosophila S3 Cells. Particulars: BODIPY lipid droplet fluorescence, 18-24 h, cells fed with added oleic acid; series mostly up to 46.1 µM. Background: Quantitative high-throughput screening tests each substance at several concentrations.
As to `CN(Cc1ccco1)c1ncnc2ccc(-c3ccoc3)cc12`, the Potency result is “active: 14.6 µM [sample A] and inactive [sample B]”.
With `CC(=O)NC(c1cccs1)c1cc(F)c2cccnc2c1O` (centres undefined) the entry was “active: 1.3 µM [sample A] and inactive [sample B]”; with `CC(C(=O)O)c1cccc(C(=O)c2ccccc2)c1` (centres undefined), “inactive [sample A] and active: 5.8 µM [sample B]”.
The entry for `C[C@H](NC(=O)C1(c2ccccc2)CCN(C(=O)[C@H]2CSCN2C(=O)OC(C)(C)C)CC1)C(=O)O` is “active: 7.31 µM [sample A] and inactive [sample B]”.

The values are drawn from PubChem BioAssay AID2685 (National Center for Advancing Translational Sciences (NCATS), 2010).
